The results in this text go back to PMC12136788.

Some of the results follow.

B1: chr17:87835246:87835247:-_ENSMUSG00000036438_ENSMUST00000040440|mus_hu|FALSE|FALSE (ssRNA)
RNA: GGGAGUUCUACAGUCCGACGAUCGAGAUCUCAUUACAGUUCCCAAUUCCUUUGUUGUUAUAGUUCCAUCACCAUCUUUGUCAAAUAGUGAAAAAGCUUCUUUGAAUUCUGCAAUCUGCUCUUCAGUCAGUUGGUCAGCCAUGCCAACAGAGGAUUGAGCAUCA
B2: chr2:47387792:47387793:-_ENSG00000143933_ENST00000272298|hu_hu|hu_hu_hu_mus_True|28_28 (ssRNA)
RNA: GGGAGUUCUACAGUCCGACGAUCUAAGGACAAUGACAGUAAGAUAAGGGAAGAAAACAUGGAGGAAUGAAGUCCUAAUUACUAUACAUGCAUAUUUUUUGACAGUAAGGGAGAAACACCUUUUACAGAUAAGUUACAAACAAACAACAGAGGAUUGAGCAUCA
B3: chr19:8913615:8913616:-_ENSMUSG00000071658_ENSMUST00000096259|mus_hu|mus_mus_mus_hu_False|8_8 (ssRNA)
RNA: GGGAGUUCUACAGUCCGACGAUCAGGGUACCAAAACCUUCUGCCUGAAAUGGGUGCCCCACCCAGUAGGGAGUUGCAGCUGAAAGUAUCUGAUGCAGAAGCAGUGACUAUACGAAAGGAGGCCCCUGAUGCUCAGAAGGCCAGCAACAGAGGAUUGAGCAUCA
B4: chr15:81824118:81824119:-_ENSMUSG00000022472_ENSMUST00000152227|mus_hu|FALSE|FALSE (ssRNA)
RNA: GGGAGUUCUACAGUCCGACGAUCAGGUUCAUGUGAAGAGAGGGAAUCUGAAAGUCUCUCUGGAUUAGAGACUCCCAGACUGUUCCCUGCCUAUAACCUCCUAGCAGCAAGUCAUUAGGAAAAUGCCCACUCAUGCCCCAACCUCAACAGAGGAUUGAGCAUCA
B5: chr1:60041781:60041782:+_ENSMUSG00000041040_ENSMUST00000036540|mus_hu|mus_mus_mus_hu_False|8_8 (ssRNA)
RNA: GGGAGUUCUACAGUCCGACGAUCAAGUUUACAAUAGUAAAGUAAAUGCAGUAGUGGCAAAUUUUCUUUUAUUUUCCUUCACAAAAGAAAAUCUUUAUAACCCAGUCCUAGUCUUGGACAUAGUGAAUCUCCAUGGGUCUGACUCAACAGAGGAUUGAGCAUCA
B6: chr12:493273:493274:-_ENSG00000073614_ENST00000399788|hu_mus|hu_hu_hu_mus_False|58_58 (ssRNA)
RNA: GGGAGUUCUACAGUCCGACGAUCUUUUCUCUCCACCACAGGGAUCUUCAAUGUAGAUCCUUGAAGUUCCCAAAAUUUUGCUAGUUGAUCCAAGAAGUCCAAUCUUACUCUAGUCAUUGCCUCAAGUUCAUUCAGGCGCUGGACCAACAGAGGAUUGAGCAUCA
B7: chr5:108714765:108714766:-_ENSG00000198961_ENST00000361557|hu_mus|motif|central (ssRNA)
RNA: GGGAGUUCUACAGUCCGACGAUCACAAACUGCUGGAGUAUGCUCUGUCUCAGUGCGAUUAUGAAGGUUUGUAUUGCUUUCGGAGGUCUCCCUGACUUCCUCACUAUGACAUACUGUGGCAAUGGAUGGACUGCUCUCAGUGCUCAACAGAGGAUUGAGCAUCA
B8: chr11:94923035:94923036:-_ENSG00000149212_ENST00000536441|hu_hu|FALSE|FALSE (ssRNA)
RNA: GGGAGUUCUACAGUCCGACGAUCUCCAGUUUUGACAAGUUUCUGAAUGUGCUCUUUUGUGAUCAGCCAAGGUCGAUGUGCUAGCAGCUUAUUAAUUUCAUUAAGAUUUUUCAGUCUUUGUGGCACAUAUUCCAAACCAUUCAACAACAGAGGAUUGAGCAUCA
B9: chr8:74527950:74527951:-_ENSG00000040341_ENST00000355780|hu_mus|motif|central (ssRNA)
RNA: GGGAGUUCUACAGUCCGACGAUCUUCUUUAAUAACCUCAAAACUGACAGGCAUAUUUCUCUUCAGCGCAAUCUCAAACACGGAGCUUAUUUCAGAUUUAUUUGCAUCUUUAUCGUCAUCCAUUUCUUUUCCUGAUUCACCAUUCAACAGAGGAUUGAGCAUCA
B10: 29362346_29365796_1561_CDS_ENSG00000159023_ENST00000356093|human|control|control (ssRNA)
RNA: GGGAGUUCUACAGUCCGACGAUCGCUUUUGGGAAUGGUGUCUGUAGAUGUCAAUCUGAAAAACGUGUGAUGUUCUACACAGACUUUCCAUAAUUUCUUAGCUGCUCGGUAACUGGGAAGUUUGAAUCCGAUGGUACUUUCAUACAACAGAGGAUUGAGCAUCA
B11: chr2:90693216:90693217:+_ENSMUSG00000027282_ENSMUST00000136872|mus_hu|FALSE|FALSE (ssRNA)
RNA: GGGAGUUCUACAGUCCGACGAUCCUCCUUGAUAACGUGGUCAAAGGAAGAUGAGACUUCUUUCUGUACAUUUCCAGGUCCUAACUCCUGUAAAACUUUACCAUGGACCACAGUUCCAAGGACUCCCGAACACAGUCUUGGAGUCAACAGAGGAUUGAGCAUCA
B12: chr8:95500983:95500984:-_ENSG00000164944_ENST00000437199|hu_hu|hu_hu_hu_mus_True|28_68 (ssRNA)
RNA: GGGAGUUCUACAGUCCGACGAUCAGAACACAUCUAUCGAGUAAAGGACCGUACAUGACGGCCUCUAACCACUGCCUCACUAACAAACUUUCCUCUCGAGCCUCCACCUGCCGCUAUUGUACUAGCCCAGGACGGUCCCAGGCCCAACAGAGGAUUGAGCAUCA
B13: chr18:56819859:56819860:+_ENSG00000166562_ENST00000588875|hu_hu|motif|central (ssRNA)
RNA: GGGAGUUCUACAGUCCGACGAUCAACUUUGAUUACUCUGUGAACUAUUGGAAUGUCUCGUCCUUCAACUUUAAAAACAACGGUUUCACCAGCUCUGAUUGGGUCUUCCCGGAAAUUUGUGAGGAACAGGAGGUCUCCUCUGUGCAACAGAGGAUUGAGCAUCA
B14: chr1:167252050:167252051:+_ENSMUSG00000040836_ENSMUST00000111450|mus_hu|FALSE|FALSE (ssRNA)
RNA: GGGAGUUCUACAGUCCGACGAUCACUGUGAAGAGGAGGAAAUGAUGCAUGUGGGGGUCUCCUUCCAAGCCCUUCGUCUCUGGUCCUCCCAUGCCCCACCUCCCAAAAAGCCACAGCCACAUCUCUAGAUUUUUUUUUGGUUUUCAACAGAGGAUUGAGCAUCA

For the assay, the target named is T1, UNK ZnF1-3 (human, UniProt Q9C0B0 31-174).
T1 sequence: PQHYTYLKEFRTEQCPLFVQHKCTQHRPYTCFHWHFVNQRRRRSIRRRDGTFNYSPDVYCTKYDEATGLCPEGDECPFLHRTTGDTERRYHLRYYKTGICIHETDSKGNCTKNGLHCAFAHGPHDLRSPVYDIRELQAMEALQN
Description: nsRBNS (natural sequence RNA bind-n-seq); RBNS binding buffer (assumed for nsRBNS): 25 mM Tris pH 7.5, 150 mM KCl, 3 mM MgCl2, 0.01% Triton X-100, 500 ug/ml BSA, 20 U/ml SUPERase-In, 4 C; UNK is unkempt and MSI1 is Musashi-1; names of the RNAs are library labels; protein concentration not given here; high values mean tight binding.
B1 came in with a binding signal of 0.672 enrichment R. As to B2, the binding signal amounted to 1.9 enrichment R. The same measure for B3: 0.876 enrichment R; for B4: 0.835 enrichment R; for B5: 0.734 enrichment R. The same measure for B6: 0.951 enrichment R. The value for B7 was 0.748 enrichment R. B8: the binding signal was 1.24 enrichment R. The same measure for B9: 0.854 enrichment R; for B10: 0.874 enrichment R. As to B11, the binding signal worked out at 0.621 enrichment R.

B12 returned a binding signal of 1.41 enrichment R. B13 showed a binding signal of 1 enrichment R. The value for B14 was 0.787 enrichment R.
